According to PubChem BioAssay AID652104 (National Center for Advancing Translational Sciences (NCATS), 2013):
About 7,200 (1.8%) of roughly 410,000 compounds were called active. This list was built around the results that the source calls inconclusive (neither active nor inactive); the mix of calls is not that of the screen. Calls come from the whole dose curve; as a rule, active = well fitted activation curve with a large enough effect; inconclusive = small, poorly fitted or top-dose-only effect, or another doubt; inactive = no such curve, though single readings can be large or run the other way. Where the call is inconclusive, the potency comes from a doubtful curve fit.

Assay: qHTS of TDP-43 Inhibitors; note: nearly all actives have a fitted effect of over 50% in size
Details: TDP-43 expressing yeast growth rescue, BacTiter-Glo, 24 h; series mostly up to 46.1 µM
Procedure, shortened: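 Yeast expressing TDP-43 (pregrown in raffinose, seeded at OD600=0.02 in galactose medium) exposed to compounds 24 hr at 30 deg C. Growth read by BacTiter-Glo luminescence; rescue of toxicity appears as increased signal.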
Potency is the fitted concentration of half-maximal effect; tags give direction and shape of the fitted curve.

Potency, inactive:
O=c1c2cc3c(cc2nc2sc(Nc4ccc(F)c(Cl)c4)nn12)OCO3, COc1ccc(Cn2c(=O)c3cccnc3n(Cc3cccc(OC)c3)c2=O)cc1, Cc1ccc(NC(=O)CNC(=O)c2ccc(C(C)(C)C)cc2)cc1S(=O)(=O)N1CCOCC1, Nc1cccc(-c2cn3ccsc3n2)c1, COc1ccccc1C(=O)C1CCCN(C(=O)c2ccc(Cl)cc2)C1 (configuration not stated), CCc1ccc(CN(Cc2cn[nH]c2-c2ccc(OC)cc2)C(=O)Nc2ccc(C)c(F)c2)cc1, CCCCC(CC)CNC(=O)C1CCN(S(=O)(=O)c2cccc3nsnc23)CC1 (configuration not stated), N#Cc1ccccc1NC(=O)COC(=O)c1ccc2c(c1)OCO2, CCOc1ccc(NS(=O)(=O)c2ccc(NC(=O)C3CC3)cc2)cc1, Cc1c(C(=O)NCc2ccc3c(c2)OCO3)oc2ccc(Br)cc12, Cc1nc(-c2ccccc2)sc1-c1ccnn1C, CN(C)S(=O)(=O)c1ccc(NC(=O)CSc2n[nH]c(=O)n2C2CC2)cc1, Cc1ccc(C(=O)O)cc1Nc1nc2ccccc2n2nnnc12, CCCOc1ccc(CNC(=O)C(CC)n2nc(C)c3sc4ccccc4c3c2=O)cc1 (configuration not stated), O=C(Nc1nc2cc3c(cc2s1)OCO3)C1CCCCC1, COc1ccc(-n2ccn(CC(=O)NCCc3ccccc3)c(=O)c2=O)cc1OC, CCOc1ccccc1CNC(=O)c1cnc2sc(N3CCCCCC3)nn2c1=O, Cc1ccc2cc(C#N)c(N3CCCN(S(=O)(=O)c4ccccc4)CC3)nc2c1C, COc1cc(CNc2ncnc3c2ncn3[C@H]2CN(Cc3ccc(Cl)cc3)C[C@@H](CO)O2)cc(OC)c1OC

Potency, active:
O=C1OCC(c2ccccc2)=C1c1ccccc1 17.8 µM, Cc1cccnc1Nc1nc(-c2ccc(O)cc2O)cs1 22.4 µM, Oc1ccccc1-c1cc(-c2cccc(F)c2)n[nH]1 3.16 µM, Cc1cccc(NC(=O)c2nc(S(C)(=O)=O)ncc2Cl)c1 20 µM, COCCNC(=S)N1CCC2CC1c1cc(-c3ccc4c(c3)OCO4)ccc12 (configuration not stated) 22.4 µM, Cc1ccc(Cl)cc1NC(=O)COC(=O)CC1CCCCC1 12.6 µM, CCc1ccc(S(=O)(=O)NCCc2csc3nc(-c4ccccc4)nn23)s1 22.4 µM, COc1ccc(C(C)(O)c2nc(/C=C/c3ccccc3)cs2)cc1 (configuration not stated) 35.5 µM

Potency, inconclusive:
O=C(Cc1ccccc1)N1CCN(c2ccccc2F)CC1 8.91 µM [activator, partial curve], CCOc1ccc2nc3ccc4[nH]onc4c3c2c1 4.47 µM [activator, full curve], O=C(OCC(=O)c1ccco1)c1ccc2ncsc2c1 15.8 µM [activator, partial curve], COc1ccc(C/C(N)=N/OC(=O)Cc2ccc(OC)c(OC)c2)cc1 22.4 µM [activator, single point], Fc1ccc(Nc2nnns2)cc1 14.1 µM [activator, single point], CCOc1ccc(CC(=O)C2C(=O)CC(C)(C)CC2=O)cc1OCC 20 µM [activator, single point], COC(=O)c1ccc(CCc2cc(O)c(Br)cc2O)cc1 12.6 µM [activator, partial curve], CCN(C(=O)/C=C/c1ccccc1)C1CCCCC1 10 µM [activator, partial curve], CN(Cc1ccccc1)C(=O)C1CCN(S(=O)(=O)Cc2ccccc2)CC1 10 µM [activator, partial curve], CC(CC(=O)NNC(=O)c1cccc(Cl)c1)c1ccccc1 (configuration not stated) 11.2 µM [activator, partial curve], COc1ccc(Nc2nc(N)c(C(=O)c3ccc(F)cc3)s2)cc1 35.5 µM [activator, single point], CCc1c(C)sc(NC(=O)C2CC2c2ccccc2)c1C(N)=O (configuration not stated) 15.8 µM [activator, single point], Cc1nc2ccc(NC(=O)c3cccc(S(=O)(=O)N(C)c4ccccc4)c3)cc2s1 35.5 µM [activator, single point], O=C1OCCN1C(=O)[C@H]1[C@H](c2ccc(F)cc2)C(c2ccc(F)cc2)=NN1c1ccccc1 5.62 µM [activator, partial curve], COc1ccccc1NCc1nnc(-c2ccccc2)o1 8.91 µM [activator, single point], O=C1NC(c2cccc(Cl)c2)Oc2ccccc21 (configuration not stated) 8.91 µM [activator, partial curve], Fc1cnc(Cl)nc1N1CCN(c2ccccc2)CC1 35.5 µM [activator, single point], N#Cc1c(-c2ccc(F)cc2)noc1N 12.6 µM [activator, single point], Clc1ccc(-n2c(SC/C=C/c3ccccc3)nnc2-c2cccnc2)cc1 20 µM [activator, single point], Cc1nnc2sc(-c3cccc4ccccc34)nn12 17.8 µM [activator, single point], O=C(NC(=S)Nc1ccccc1[N+](=O)[O-])c1ccccc1 2.24 µM [activator, full curve], O=[N+]([O-])c1cc(-c2ccc(C(=S)N3CCOCC3)o2)ccc1Cl 10 µM [activator, single point], Cc1ccc(Nc2c3c(nc4nncn24)CCC3)cc1C 22.4 µM [activator, single point], COc1ccc(-n2c(SCc3ccc([N+](=O)[O-])cc3)nnc2-c2ccccc2)cc1 35.5 µM [activator, partial curve], CCOC(=O)c1c(S(=O)(=O)N2CCCC(C(=O)N3CCN(c4cccc(C)c4C)CC3)C2)c(C)n(C)c1C (configuration not stated) 0.794 µM [activator, full curve, poor fit], CCC(C)NC(=O)CSc1nc2c(sc(=S)n2Cc2ccco2)c(=O)n1-c1ccccc1 (configuration not stated) 35.5 µM [activator, single point], O=[N+]([O-])c1ccc(N/N=C/c2ccccc2O)cc1 11.2 µM [activator, partial curve], O=C(N/N=C/c1ccc(F)c(F)c1)c1cc2c(s1)-c1ccccc1CC2 3.16 µM [activator, partial curve], COc1ccc(-c2ccc3c(N)c(C(=O)NCc4ccc(Cl)cc4)sc3n2)cc1 3.55 µM [activator, partial curve], Cc1ccc2oc(C(=O)N3CCN(c4cccc(C)n4)CC3)c(C)c2c1 35.5 µM [activator, single point], Cc1ccc(CNS(=O)(=O)c2ccc(C)s2)cc1 6.31 µM [activator, single point], COc1ccc(F)cc1CSc1nnnn1-c1ccc(O)cc1 22.4 µM [activator, single point], O=C(Nc1ccc(F)cc1)c1c(Cl)nc2ccccn12 11.2 µM [activator, single point], NNC(=O)CN1C(c2ccccc2)=Nc2ccc(Br)cc2C1c1ccccc1 (configuration not stated) 3.16 µM [activator, single point], O=C(c1ccccc1Sc1cccc2ccccc12)N1CCOCC1 35.5 µM [activator, single point], COc1cccc(CN(C)C(=O)c2ccccc2Sc2ccccc2C#N)c1OC 14.1 µM [activator, single point], CC(C)N(Cc1ccccc1)C(=S)Nc1ccc(OC(F)F)cc1 12.6 µM [activator, partial curve], COc1cccc(C(NC(C)=O)c2nc(-c3ccc(F)c(Cl)c3)cs2)c1 (configuration not stated) 35.5 µM [activator, partial curve], O=C(NC(=S)NC1CCCCC1)c1ccc(Cl)cc1 12.6 µM [activator, partial curve], COc1cc(CCC(=O)Nc2c(C(=O)N3CCN(c4ccccc4OC)CC3)oc3ccccc23)on1 12.6 µM [activator, partial curve], Cc1cc(=O)oc2c(C)c(OCC(=O)N3CCN(c4ccc(F)cc4)CC3)ccc12 35.5 µM [activator, single point], Cc1ccc(C(=O)CC2(O)C(=O)N(C)c3ccc(Br)cc32)c(C)c1 (configuration not stated) 10 µM [activator, partial curve], COC(=O)[C@@]12C[C@@H](CC(=O)NCCCN3CCCC3=O)C(=O)N(Cc3ccccc3)C1=CCC(C)(C)C2 3.98 µM [activator, single point], C[C@H]1CCC/C=C/[C@@H]2C[C@H](O)C[C@H]2[C@H](O)[C@H](S(=O)c2ccc(O)cc2)CC(=O)O1 (some centres not stated) 0.891 µM [activator, full curve, poor fit], CCCCNc1c(-c2cccc(OC)c2)nc2nc(C)cc(C)n12 35.5 µM [activator, single point]
